Laboratory results reported in article PMC4403821, “The Viral G Protein-Coupled Receptor ORF74 Hijacks β-Arrestins for Endocytic Trafficking in Response to Human Chemokines” (PLoS ONE, 2015).

Experiments:
WT-ORF74 = molecular target: T1, WT-ORF74 (Kaposi's sarcoma-associated herpesvirus …, UniProt Q98146 1-342); assay: cell-based or functional assay
T1 sequence: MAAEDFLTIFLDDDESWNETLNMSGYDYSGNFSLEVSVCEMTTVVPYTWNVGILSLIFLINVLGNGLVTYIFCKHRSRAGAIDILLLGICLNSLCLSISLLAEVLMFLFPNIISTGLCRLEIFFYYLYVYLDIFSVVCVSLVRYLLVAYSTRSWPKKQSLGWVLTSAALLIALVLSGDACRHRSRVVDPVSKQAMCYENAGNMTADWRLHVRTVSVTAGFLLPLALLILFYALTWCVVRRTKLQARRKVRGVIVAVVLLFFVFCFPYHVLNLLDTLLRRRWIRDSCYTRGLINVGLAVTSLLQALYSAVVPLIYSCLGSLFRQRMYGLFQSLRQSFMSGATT

ORF74-Rluc8 [1] = molecular target: T2, ORF74-Rluc8 (Kaposi's sarcoma-associated herpesvirus …, UniProt Q98146 1-342); assay: cell-based or functional assay
T2 sequence: T1 sequence

ORF74-Rluc8 [2] = molecular target: T2, ORF74-Rluc8; assay: radioligand binding; whole transfected HEK293T cells, 100 pM ^125I-CXCL8 with increasing unlabeled CXCL1 or CXCL8, 3h at 4°C, 50 mM HEPES pH 7.4, 1 mM CaCl2, 5 mM MgCl2, 0.5% BSA; washes with 0.5 M NaCl; Ki from IC50 by Cheng and Prusoff; settings: one partner purified

B1: CXCL8 (ligand)
chain: not shown
In the case of B1, the “PLC activation (InsP accumulation) in HEK293T, pEC50; agonist” value (WT-ORF74) is reported as over 7, the “PLC activation (InsP accumulation) in HEK293T, pEC50; agonist” value (ORF74-Rluc8 [1]) is reported as over 7 and the “β-arrestin1-eYFP recruitment to ORF74-Rluc8 (BRET), pEC50 of the chemokine; agonist” value (ORF74-Rluc8 [1]) is reported as over 7. For the same binder, the “β-arrestin2-eYFP recruitment to ORF74-Rluc8 (BRET), pEC50 of the chemokine; agonist” value (ORF74-Rluc8 [1]) was over 7 and the pKi (ORF74-Rluc8 [2]) was 8.8.
